# Measured values from PMC4336329 (PLoS ONE, 2015).
# The whole screen tested about 310,000 compounds, of which about 2,200 (0.71%) showed an effect of 50% or more. The effect is printed as a negative number. This is one part of the list.
# Molecular target: human ether-à-go-go-related gene (hERG) potassium channel (human, UniProt Q12809)
# Assay: primary screen, population patch clamp on CHO cells stably expressing hERG
# Chain of human ether-à-go-go-related gene (hERG) potassium channel (Q12809 whole entry, looked up): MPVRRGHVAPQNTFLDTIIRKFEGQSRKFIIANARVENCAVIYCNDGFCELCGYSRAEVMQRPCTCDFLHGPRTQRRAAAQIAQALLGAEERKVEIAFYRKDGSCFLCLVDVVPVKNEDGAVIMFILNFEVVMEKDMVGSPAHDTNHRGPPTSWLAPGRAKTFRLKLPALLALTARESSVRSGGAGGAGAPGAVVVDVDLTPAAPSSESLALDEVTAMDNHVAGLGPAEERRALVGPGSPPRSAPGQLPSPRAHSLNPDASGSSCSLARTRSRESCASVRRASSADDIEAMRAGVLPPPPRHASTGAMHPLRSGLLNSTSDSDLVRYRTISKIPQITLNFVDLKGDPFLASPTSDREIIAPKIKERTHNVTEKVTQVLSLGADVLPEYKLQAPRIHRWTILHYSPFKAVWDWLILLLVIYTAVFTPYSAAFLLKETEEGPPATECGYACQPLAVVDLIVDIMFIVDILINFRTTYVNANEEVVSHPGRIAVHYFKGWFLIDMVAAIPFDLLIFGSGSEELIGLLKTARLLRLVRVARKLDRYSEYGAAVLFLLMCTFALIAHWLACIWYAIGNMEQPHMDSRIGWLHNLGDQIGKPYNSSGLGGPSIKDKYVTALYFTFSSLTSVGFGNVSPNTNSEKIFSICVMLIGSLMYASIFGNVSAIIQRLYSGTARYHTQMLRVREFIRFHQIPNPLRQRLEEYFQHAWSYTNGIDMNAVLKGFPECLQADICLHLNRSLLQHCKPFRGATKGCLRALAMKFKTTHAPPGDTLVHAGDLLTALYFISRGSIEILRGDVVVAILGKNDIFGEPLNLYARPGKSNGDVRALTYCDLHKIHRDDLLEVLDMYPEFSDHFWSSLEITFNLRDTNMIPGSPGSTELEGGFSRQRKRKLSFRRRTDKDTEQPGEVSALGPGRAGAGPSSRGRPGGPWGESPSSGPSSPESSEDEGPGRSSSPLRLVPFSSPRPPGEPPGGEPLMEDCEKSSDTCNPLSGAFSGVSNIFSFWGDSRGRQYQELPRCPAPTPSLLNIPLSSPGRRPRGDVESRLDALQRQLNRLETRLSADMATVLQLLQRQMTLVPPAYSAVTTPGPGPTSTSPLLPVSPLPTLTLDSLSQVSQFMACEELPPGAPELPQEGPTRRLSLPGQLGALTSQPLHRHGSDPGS
row,SMILES,"hERG current change (%, negative = inhibition) at 1uM"
1,CC(=O)Nc1ccccc1C(=O)C(=O)Nc1ccc(C(=O)N2CCOCC2)cc1,9.76%
2,C/C(=N/NS(=O)(=O)c1ccccc1)c1ccc(NC(=O)C2CC2)cc1,13.3%
3,COCCn1c(=O)[nH]c2cc(C(=O)NCCN3CCN(c4ccccc4F)CC3)ccc2c1=O,12.2%
4,COc1ccc(N2CC(C(=O)NCCc3ccc(OC)c(OC)c3)CC2=O)cc1 (centres unmarked),-5.45%
5,Cc1csc(SCC(=O)Nc2sccc2C#N)n1,6.92%
6,NC12CCc3c(no[n+]3[O-])C1(O)CC(c1ccccc1)=[N+]2[O-] (centres unmarked),16.3%
7,CNC(=S)Nc1cc(C(=O)N2CCCC2)ccc1N1CCCC1,2.01%
8,CC(=O)C1C2c3ccccc3OC1(C)N=c1s/c(=C/c3cn(C)nc3C)c(=O)n12 (centres unmarked),5.83%
9,O=C(Nc1ccc(O)cc1)c1ccccc1OCc1ccccc1,16%
10,Cc1csc2c(=O)sc(NC(=O)c3ccc(F)cc3Cl)nc12,8.64%
11,CCN(CCCNC(=O)CNC(=O)c1nn(-c2ccc(OC)cc2)c(=O)c2ccccc12)c1cccc(C)c1,9.48%
12,Cc1ccc(NC(=O)C2CCN(C(=O)c3ccccc3C)CC2)cc1,12.6%
13,CCOc1ccc(NC(=S)N2CCC(NC(=O)C3CCCCC3)CC2)cc1,-5.73%
14,COc1cc(NC(=O)c2cc(-c3cccnc3)nc3ccc(Br)cc23)cc(OC)c1,5.26%
15,C[C@@H]1CC=C[C@H]2[C@H]1C(=O)N(Cc1ccccc1)[C@H]2c1ccc2ccccc2c1,8.96%
16,CCCCC(=O)Nc1ccc(N2CCN(C(=O)CC)CC2)cc1,6.35%
17,CCOC(=O)N1CCN(C(=S)NC)CC1,9.92%
18,COc1nc(NCCc2ccc(OC)c(OC)c2)nc(Nc2ccccc2)n1,7.37%
19,COc1ccc(Cn2ccnc2SCC(=O)NC2CCCC2)cc1,14.6%
20,Cn1c(-c2cccc([N+](=O)[O-])c2)cnc1NCc1cccc([N+](=O)[O-])c1.O=C(O)C(=O)O,-28.2%
21,Cc1ccc2nc(-c3ccc(NC(=O)c4ccco4)cc3)[nH]c2c1,9.44%
22,Br.CCn1c(=N)n(CC(=O)c2ccc(OC)cc2)c2ccccc21,-0.629%
23,C/C(=N/Nc1nc(-c2ccc(Cl)cc2)cs1)c1cccs1,10.4%

row,SMILES,"hERG current change (%, negative = inhibition) at 1uM"
1,COc1ccc(CCNC(=O)CCSc2nc(-c3ccco3)cc(C(F)(F)F)n2)cc1,8.38%
2,O=C(Nc1cn(-c2ccccc2)nc1-c1ccc(F)cc1)c1ccccc1,17.7%
3,Cc1ccc(C(C(=O)NC2CCCC2)N(Cc2cccs2)C(=O)CNC(=O)c2cccs2)o1 (centres unmarked),6.98%
4,CCOc1ccc(CCNC(=O)CSc2nc3ncc(Cl)cc3[nH]2)cc1OCC,9.08%
5,Oc1ccc(O)c(Cc2nc3ccccc3[nH]2)c1,0.773%
6,Cc1nc(N)sc1-c1csc(N(C)c2ccc(O)cc2)n1,6.5%
7,CC(=O)O.CC(=O)Oc1ccc2c(c1)OC(c1ccccc1)CC21CC(C)(C)NC(=O)N1 (centres unmarked),9.35%
8,CCCCN=C1NC(=O)C(CC(=O)NCCc2ccc(OC)cc2)S1 (centres unmarked),13.4%
9,COC(=O)Cn1cnc2c(C#N)c3n(c2c1=O)CCCC3,-3.24%
10,CCCCCCN1CC(O)=C(c2nc3ccccc3[nH]2)C1=N,-7.01%
11,CC1(C)CC(=O)C(C(C2=C(O)CC(C)(C)CC2=O)c2ccc(Br)s2)C(=O)C1 (centres unmarked),4.88%
12,O=C(Cc1c(F)cccc1Cl)Nc1ccc(S(=O)(=O)NCC2CCCO2)cc1 (centres unmarked),10%
13,N#Cc1ccc(N2C(=O)[C@@H]3C(C(=O)c4ccc5ccccc5n4)=NN[C@@H]3C2=O)cc1,11.7%
14,O=C(Nc1ccc([N+](=O)[O-])cc1)c1ccccc1F,-6.63%
15,Cc1csc(NC(=O)C(NS(=O)(=O)c2ccc(Br)s2)c2ccccc2)n1 (centres unmarked),10.4%
16,Cc1nn2c(-c3ccncc3)ccnc2c1Br,0.782%
17,COC(=O)[C@@H]1Cc2c([nH]c3ccccc23)C(C)N1C(=O)c1ccccc1 (some centres unmarked),12.7%
18,COc1ccc(OCCN(C)Cc2c(O)ccc3ccccc23)cc1,17.1%
19,CCc1nnc(NC(=O)CCC(=O)Nc2ccc(Cl)cc2)s1,14.4%
20,COc1ccccc1N1CCN(C(=O)/C=C/c2cccs2)CC1,2.09%
21,CCCc1nnc(NC(=O)CCC(=O)NC2CCCCCC2)s1,5.87%
22,Cc1cc(C(=O)CCl)c(C)n1Cc1ccco1,6.53%
23,CC1CCCCC12NC(=O)N(CC(=O)c1ccc(Cl)s1)C2=O (centres unmarked),5.11%

row,SMILES,"hERG current change (%, negative = inhibition) at 1uM"
1,Cc1cccc(/C(N)=N/OC(=O)COc2ccc(Cl)c(C)c2)c1,11.8%
2,COc1cc(/C=C/C(=O)OCC(=O)NC(=O)NC(C)C)cc(OC)c1OC,15.8%
3,CN1CCN(C(=O)/C(=C\c2cccnc2)NC(=O)c2cccc(Br)c2)CC1,21.6%
4,O=C(C1CCCN1C(=O)c1cccs1)N1CCc2ccccc21 (centres unmarked),16.6%
5,COc1ccc(CCNS(=O)(=O)c2cccc(C)c2)cc1OC,13.6%
6,CC(C)NS(=O)(=O)c1ccc(Br)c(C(=O)OC(C)C(=O)NC2CCCCC2C)c1 (centres unmarked),13.8%
7,CN1CCC(=O)N([C@H](CC#N)c2ccccc2)CC1,16.3%
8,Cc1ccccc1NC(=O)Cc1nc(CN(C)CC(=O)Nc2cccc(F)c2)cs1,-3.77%
9,COc1ccc(NS(=O)(=O)c2c(C)cc(C)cc2C)cn1,10.4%
10,Cc1cccc(CCN=C(N)NS(=O)(=O)c2ccccc2)c1,5.48%
11,O=C(c1ccc2c(c1)OCO2)N1CCN(c2cccc(C(F)(F)F)c2)CC1,4.94%
12,COc1ccc(C(=O)Nc2ccc3c(c2)nc2n3CCSC2)cc1,0.827%
13,Cc1ccc(S(=O)(=O)NNc2nnc(C)c(=O)[nH]2)cc1,11.6%
14,COc1ccc(S(=O)(=O)N2CCC3(CC2)OCCN3S(=O)(=O)c2c(C)cc(C)cc2C)cc1,7.22%
15,Cc1ccc(O)c(C(=O)CC(=O)c2cccc(F)c2)c1,15.1%
16,Cn1cccc1Cc1nnc(SCC(=O)Nc2ccc(F)cc2F)n1-c1ccc(F)cc1,-4.13%
17,Cc1ccsc1/C=N/NC(=O)CSCc1ccc(Cl)cc1,10.7%
18,CCN1C(=O)C2(SC(NC(C)=O)=NN2C(C)=O)c2cc(C)cc(C)c21 (centres unmarked),10.2%
19,CC1=NN(C(N)=S)C(=O)C1N=Nc1c(C)n(C)n(-c2ccccc2)c1=O (centres unmarked),11.3%
20,CCOc1ccc(-n2nc(C(=O)NC3CCCCC3)c3ccccc3c2=O)cc1,21.8%
21,O=C(NC1CCCCCCC1)c1ccco1,-5.01%
22,Cc1csc(NC(=O)Cn2nc(C)c([N+](=O)[O-])c2C)n1,6.55%
23,CSc1ncc(C(=O)NCCCc2ccccc2)c(C)n1,4.27%

row,SMILES,"hERG current change (%, negative = inhibition) at 1uM"
1,CCN(c1ccccc1)S(=O)(=O)c1ccc(OC)c(NC(=O)CN2C(=O)NC(C)(C)C2=O)c1,13.2%
2,CC(=O)N1N=C(c2cccc(O)c2)CC1c1cccs1 (centres unmarked),16.9%
3,COc1ccccc1N1CCN(C(=O)C2CC2)CC1,14.2%
4,CCOc1ccccc1NC(=O)CSc1nnc(-c2ccco2)o1,8.2%
5,Cc1ccccc1CC1(CO)CCCN(C(=O)c2ccccc2Cl)C1 (centres unmarked),-70.4%
6,CN(C)Cc1nc2c(c(=O)[nH]1)C1(CCCCC1)Cc1ccccc1-2,3.54%
7,NC(=NCc1ccco1)NC(=O)c1ccccc1,27.5%
8,COCCCNc1nc2c(-c3cccc(C)c3)nnn2c2ccccc12,9.07%
9,COc1ccc(S(=O)(=O)CCC(=O)NCc2ccc(C)o2)cc1,4.48%
10,O=C(CSc1nnc(-c2cccnc2)n1CCc1ccccc1)N1CCCCC1,13.5%
11,O=C(COC(=O)C1=COCCO1)NC(=O)c1ccc(OC(F)F)cc1,17.9%
12,CCCn1nnc(NC(=O)c2ccc3c(c2)OCO3)n1,7.24%
13,COc1ccc(/C=C2\SC(=S)N(CCC(=O)N(CCO)c3ccccc3)C2=O)cc1OC,13.1%
14,CC(CC(=O)O)CC(=O)Nc1ccc(S(N)(=O)=O)cc1 (centres unmarked),9.04%
15,O=C(NCCc1csc(-c2cccc(F)c2)n1)c1ccco1,10.3%
16,CC1CCN(CC(C)OC(=O)c2ccc3c(c2)OCCO3)CC1.Cl (centres unmarked),3.75%
17,O=C(CSc1nnc(-c2ccccn2)o1)Nc1ccccc1Cl,8.15%
18,CCn1cc(C(=O)NCC(OC)OC)c(=O)c2cc(S(=O)(=O)N(C)C3CCCCC3)ccc21,9.43%
19,Cc1cc(C)cc(OC2CCCCC2NS(=O)(=O)c2ccccc2)c1 (centres unmarked),2.99%
20,O=C(Nc1nnc(-c2ccc(Cl)s2)o1)C1CC1,12.6%
